# Test results reported in the supplement of paper PMC3334620.
# In all, about 33,000 sequences were measured (“E-score (-0.5 to 0.5)”: median about -0.043, highest 2% from about 0.37 on). The list shows a part of the results.
# Target: T1, Upc2 (UniProt Q12151)
# T1 sequence: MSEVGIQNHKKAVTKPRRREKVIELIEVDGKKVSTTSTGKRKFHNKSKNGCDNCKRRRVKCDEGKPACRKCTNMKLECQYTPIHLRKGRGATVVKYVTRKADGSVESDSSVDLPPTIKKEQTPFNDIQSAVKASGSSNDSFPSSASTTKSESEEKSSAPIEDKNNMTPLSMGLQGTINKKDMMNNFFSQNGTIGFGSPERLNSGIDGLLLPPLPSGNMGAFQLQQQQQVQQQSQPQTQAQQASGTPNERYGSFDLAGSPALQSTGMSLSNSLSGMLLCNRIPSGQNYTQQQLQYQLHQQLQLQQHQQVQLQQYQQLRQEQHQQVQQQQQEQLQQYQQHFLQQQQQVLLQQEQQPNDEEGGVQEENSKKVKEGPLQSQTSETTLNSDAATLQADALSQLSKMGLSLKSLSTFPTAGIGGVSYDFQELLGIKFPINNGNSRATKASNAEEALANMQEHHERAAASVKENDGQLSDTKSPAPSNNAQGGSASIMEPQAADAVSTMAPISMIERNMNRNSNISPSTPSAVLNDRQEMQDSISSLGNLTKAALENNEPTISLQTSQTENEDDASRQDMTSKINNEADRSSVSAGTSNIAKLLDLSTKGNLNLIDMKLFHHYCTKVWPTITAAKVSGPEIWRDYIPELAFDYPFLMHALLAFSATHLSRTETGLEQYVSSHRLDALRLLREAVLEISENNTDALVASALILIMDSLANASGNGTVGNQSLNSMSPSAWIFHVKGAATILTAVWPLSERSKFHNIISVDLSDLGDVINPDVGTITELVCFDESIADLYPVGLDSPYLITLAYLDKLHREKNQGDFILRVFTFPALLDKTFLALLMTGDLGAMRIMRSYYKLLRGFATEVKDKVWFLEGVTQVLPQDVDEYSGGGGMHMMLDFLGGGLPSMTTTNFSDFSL
# Experiment: PBM E-score (8-mer binding enrichment) (E-score (-0.5 to 0.5)); higher = stronger / more preferred TF binding; most listed sequences are background and not binding sites
# Conditions: protein concentration: 200 nM; construct: GST-full length
# Procedure: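 Universal 'all 10-mer' protein binding microarrays (Agilent AMADID 015681) probed with GST-tagged S. cerevisiae TFs (full-length or DBD) made by in vitro transcription/translation (PURExpress), about 100-200 nM. Bound TF was detected with fluorescent anti-GST. Each ungapped 8-mer (which stands for itself and its reverse complement) is scored by the PBM enrichment score (E-score), a modified Wilcoxon-Mann-Whitney statistic from -0.5 to +0.5, computed with the Universal PBM Analysis Suite. Scale: above 0.35 generally sequence-specific binding.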
row,Sequence,PBM E-score
1,GCGGAAGA,0.014
2,CTTGGTCA,-0.176
3,GCACGCTA,-0.0431
4,GAACAAGC,0.0426
5,ATCATTAG,0.0098
6,GAAAAGCC,-0.169
7,ATCATACA,0.0941
8,ACCTGGTA,-0.0639
9,ATTAGGTG,-0.0896
10,ACAGCTAA,-0.157
11,AGGTCAGG,-0.323
12,ATCTGGAC,-0.288
13,GGATTTCA,-0.191
14,ATTTTAGC,0.0174
15,TATGGGCA,-0.159
16,CGCGTGTC,0.0605
17,GCGGCCCC,-0.254
18,TGTTTAAA,0.0234
19,AGGTCTCG,0.0733
20,GTTTCGAA,0.0998
21,AGCCCCCA,-0.311
22,TCCTTGCA,-0.105
23,GTACGAAC,0.467
24,GCAGAACA,-0.193
25,GACCAGAA,-0.053

row,Sequence,PBM E-score
1,ACCAACCG,-0.0269
2,GCGAGGCC,0.2
3,GCCGGGCC,-0.11
4,ACGAATAA,0.312
5,GGGCCTTA,-0.215
6,CTACTGGA,-0.249
7,TCCGTGAA,0.0778
8,ACGATCGC,0.352
9,AGCGAACA,0.19
10,AGGGACAA,-0.0862
11,GTAAAGGA,0.187
12,CACTTGAG,-0.0904
13,ACCCCCTA,-0.152
14,AGATATCC,-0.0197
15,AAATGATT,0.0371
16,ATGTCAGA,-0.25
17,GCGAATCA,0.0895
18,GCTTAGAC,-0.0952
19,ATGAGTGG,-0.126
20,CCAAGGCC,-0.13
21,ACGCGCAT,0.103
22,CAATAAAG,-0.0138
23,CCCCTGGA,-0.204
24,TAAGAGCA,0.147
25,ATAACGTA,0.258

row,Sequence,PBM E-score
1,ATGCTGTG,0.0988
2,CACGAACA,0.0853
3,ATGTTTGA,-0.0614
4,TCCTGGCA,-0.0779
5,CGCCGGGA,-0.107
6,GCGCTCCC,-0.151
7,CATGTATA,0.137
8,ATACTCGG,0.0799
9,AAGAATAC,-0.00552
10,AGTGTTTC,0.109
11,TGCTCACA,-0.0272
12,AGTTGAAC,0.142
13,CCGAGGAG,0.142
14,CGGAGTAG,-0.123
15,AGATAGCT,-0.104
16,GACAATTA,0.1
17,ACGAGGCG,0.4
18,AGGGAGCC,-0.284
19,ACAATCAC,0.0153
20,CTGGCTAA,-0.194
21,CAATGGTA,-0.0318
22,ACTGTGTC,-0.114
23,ACGAACAA,0.363
24,AATTAGGG,-0.251
25,AGTGTAAC,-0.0845

row,Sequence,PBM E-score
1,GAAGAATA,-0.0363
2,CACGCACA,0.127
3,GCCACACA,-0.312
4,CGGGGACG,-0.191
5,TGGATGAA,0.00712
6,CGCCCCCG,-0.129
7,ACTTACGC,-0.0998
8,GACTCTGA,-0.295
9,GTCGGGGA,-0.188
10,AAGGCCCC,-0.105
11,GCAGGCGC,-0.0999
12,ATTCGAAC,0.119
13,GCGCACGC,-0.0747
14,CCAGCAAC,0.153
15,CGGATTTA,0.0862
16,AGAGGCAT,0.0179
17,AGACATAC,-0.0383
18,ACTCCGGC,-0.0468
19,GATGCTAA,0.068
20,AAGCATAA,-0.118
21,GACAACTA,-0.0195
22,ATCGTAGC,0.356
23,AAAGAGAC,-0.0897
24,ATGCATCG,0.133
25,AGCGTCCG,0.0285

row,Sequence,PBM E-score
1,AGTGTGAA,0.0175
2,GAATGTTA,-0.00277
3,AATTTAGG,0.0945
4,ACGGCGAC,0.142
5,GCACCCAA,0.0553
6,ATGGGTTG,0.102
7,CTAAGCAG,-0.156
8,TCAATCCA,0.0272
9,GCGATCAA,0.146
10,GTCATGTA,-0.0385
11,GATTGGCA,-0.107
12,CTACCCTC,-0.244
13,ACCAGCAA,0.0815
14,ACGAGCCT,0.396
15,AGCTAGAC,0.0183
16,CGTAGGCC,-0.107
17,GCCCTCGA,-0.144
18,AGCGTATC,0.166
19,GGACTTAC,-0.115
20,ATGAGATA,-0.077
21,CCCGTCTC,0.0208
22,TCCGAGGA,0.198
23,CCGGTCCG,-0.0341
24,CTCCGGTC,-0.0214
25,GAATGGCC,-0.202

row,Sequence,PBM E-score
1,CAGTCGTC,-0.106
2,CATCGAGC,-0.121
3,CCTCCTGA,-0.0709
4,GGCTCACA,-0.122
5,GACACGTA,0.117
6,CAGCGTAG,-0.0571
7,CATGTCGG,-0.0532
8,AAGGACCG,-0.107
9,AGCGTCTC,-0.245
10,CATTCAAG,-0.0014
11,CTACTTAA,-0.0179
12,AGTCCTAG,-0.308
13,CCTCCGTA,0.305
14,GAGTATGC,0.0431
15,TATTTCCA,0.033
16,CGGAGCCC,-0.215
17,AGAAGACA,-0.0398
18,AGGAGAGC,0.0146
19,CTATAGCA,-0.0859
20,AAGCGTTG,-0.0869
21,ACCGTGAC,-0.189
22,ACTTGACC,-0.0255
23,CGTGGTAC,0.0748
24,AAAAATGG,-0.0582
25,TCCATACA,-0.0698

row,Sequence,PBM E-score
1,ATACAGTA,0.15
2,CCGGGCAG,0.0011
3,CAGCCGCG,-0.0294
4,GCGGAAGC,-0.0169
5,AGTTGGCA,0.0278
6,ACTTCACT,-0.196
7,AATAAGGA,-0.11
8,ATTTAAAG,-0.0885
9,GCAATGAA,0.136
10,GTGATAGA,0.0335
11,CATTCCAC,-0.133
12,CTGCTCAA,-0.0997
13,AACCATAG,-0.204
14,GGCAAGCA,-0.0342
15,ACTGTGAC,-0.121
16,GGCTTAGA,-0.264
17,AACTCCAG,-0.142
18,CTGGGACC,-0.132
19,CCGCGATC,-0.0572
20,TGGACTAA,0.0432
21,ACACACGT,-0.0788
22,AGCAAAAA,-0.127
